Source: PubChem BioAssay (NCI)
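Five compound concentrations were applied to cells in 96-well plates for 48 hours; endpoints were derived by simple linear interpolation of the resulting dose-response curve. Here, GI50 denotes the concentration required for 50% inhibition of growth. TGI: total growth inhibition.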 Peptide text beside a SMILES is read from it. * marks the point of attachment. Boc = CC(C)(C)OC(=O)*

Test system: NCI-H322M lung
Test: NCI tumour cell line growth inhibition, 48 h

SMILES: CC(C)(C)OC(=O)NC(Cc1ccccc1)C(=O)N1CCCC1C(N)=O (stereo not drawn) (Boc-Phe-Pro-NH2; configuration not given here)
- TGI: > 100 µM

SMILES: O=C1CCCC/C1=C(\Br)I
- TGI: 32.8 µM

SMILES: CC1(C)CC[C@]2(C(=O)O)CC[C@]3(C)C(=CC[C@@H]4[C@@]5(C)CC[C@H](OC6OC(C(=O)O)C(O)C(O)C6O)C(C)(C)[C@@H]5CC[C@]43C)[C@@H]2C1 (stereo partly specified)
- TGI: 26.4 µM

SMILES: C=CCN(N=O)C(=O)NCCCC(NC(C)=O)C(=O)NCc1ccccc1 (stereo unspecified)
- TGI: > 100 µM

SMILES: CC1=C(Cc2ccccc2)C(Cc2ccccc2)=C(C)S1=O
- TGI: 77.8 µM

SMILES: COC(=O)C1=C(C(=O)OC)SC(=C(Cl)C(=S)Oc2ccccc2N)S1
- GI50: > 50 µM
- TGI: > 50 µM

SMILES: CC1(C)[C@@H]2CC[C@@]1(C)C1(SS1=O)C21Cc2ccccc2C1 (stereo partly specified)
- TGI: > 100 µM

SMILES: O=C1c2c(c(-c3ccccc3)c(-c3ccccc3)c(-c3ccccc3)c2-c2ccccc2)C(=O)N1c1cccc(Br)c1
- TGI: > 100 µM

SMILES: O=C(OCCO)C1CC2CC1C1(C2)OCCO1 (stereo unspecified)
- TGI: > 100 µM

SMILES: CN(C)CCCNC(=O)c1cccc2ccccc12
- TGI: > 100 µM

SMILES: C/C=C/C1=CN2C(=O)c3cc(OC4OC(C)C(NC)C(C)(O)C4O)c(C)cc3N=C[C@@H]2C1 (stereo partly specified)
- GI50: 0.166 µM

SMILES: O=C(O)/C=C\C(=O)c1ccc(Cl)cc1
- TGI: > 100 µM

SMILES: C=C(C)c1nc(C#N)c(N)o1
- TGI: > 100 µM

SMILES: CCOC(=O)CCSS(=O)(=O)c1ccccc1
- TGI: > 100 µM

SMILES: C#C[C@@]1(O)[C@@H](CO)O[C@@H](n2cc(Br)c3c(N)ncnc32)[C@@H]1O
- GI50: 0.348 µM
- TGI: 5.06 µM

SMILES: Cc1nc2c(o1)C(=Nc1ccccc1)c1ccccc1C2=Nc1ccccc1
- TGI: > 100 µM

SMILES: COc1cc(O)cc2oc(-c3ccc(O)cc3)cc(=O)c12
- TGI: > 100 µM

SMILES: N#CC1=C(N)OC2=C(CCCc3ccccc32)C1c1ccc([N+](=O)[O-])cc1 (stereo unspecified)
- TGI: 57.5 µM

SMILES: COC(=O)c1c(C)c2n(c1C)C(=O)C(c1ccccc1)=C2
- GI50: > 87.2 µM
- TGI: > 100 µM

SMILES: Cn1c(=O)c2[nH]c(CSCc3ccccc3)nc2n(C)c1=O
- TGI: > 100 µM

SMILES: C#CCCCCC#Cc1ccccc1C(=O)C=[N+]=[N-]
- TGI: > 100 µM

SMILES: CCc1cccc(C)c1NC(=O)CCc1n[nH]c(=S)o1
- TGI: > 100 µM

SMILES: CC(C)N(Cc1c(F)cccc1F)c1ccc(CO)c(Cl)c1
- GI50: 2.43 µM
- TGI: 12.6 µM

SMILES: Cc1ccc(C2C3Cc4ccccc4C3=NN2c2ccc(S(=O)(=O)NC(=O)NC3CCCCC3)cc2)cc1 (stereo unspecified)
- GI50: 4.65 µM
- TGI: 25.7 µM

SMILES: Cc1cc(C)c([S@@](=O)O[C@@H]2[C@H]3OC(C)(C)O[C@H]3O[C@@H]2[C@H]2COC(C)(C)O2)c(C)c1
- TGI: > 100 µM

SMILES: Oc1ccc[n+](Cc2ccccc2)c1
- TGI: > 100 µM

SMILES: OCCCCOC(c1ccccc1)(c1ccccc1)c1ccccc1
- TGI: > 100 µM

SMILES: Nc1nc2ccc(NCc3ccc(C(=O)NC(CCC(=O)O)C(=O)O)cc3)cc2c(=O)[nH]1 (stereo unspecified)
- TGI: > 100 µM

SMILES: CN1C[C@@H](c2ccc(Cl)cc2)[C@]2(NC(=S)N(c3ccc(F)c(Cl)c3)C2=O)[C@@]12C(=O)NC1C=CC(Cl)=C[C@H]12 (stereo partly specified)
- GI50: 3.61 µM
- TGI: 24.2 µM

SMILES: CCOP(=O)(CN1CCNCCN(CP(=O)(OCC)OCC)CC1)OCC
- TGI: > 100 µM

SMILES: O=C1C(Cl)C(c2cc(Br)ccc2O)N1n1cnc2ccccc2c1=O (stereo unspecified)
- TGI: 50 µM

SMILES: CC(=O)OCCn1c(Cc2ccc(C)cc2)nn(C(C)=O)c1=O
- TGI: > 100 µM

SMILES: COc1ccc(C(=O)c2cc(OC)c(OC)c(OC)c2)cc1OC(=O)C(Cl)(Cl)Cl
- GI50: 0.0846 µM
- TGI: > 100 µM

SMILES: COc1cc(/C=C2\CCC/C(=C\c3ccc(OC(=O)CCCCC4CCSS4)c(OC)c3)C2=O)ccc1OC(=O)CCCCC1CCSS1 (stereo unspecified)
- TGI: > 100 µM

SMILES: CCc1n[nH]c(=O)n1N1C(=O)C2CCCCC2C1=O (stereo unspecified)
- TGI: > 100 µM

SMILES: C/C(=N\[N+](C)(C)C)c1ccc(C)c(C)c1
- TGI: > 100 µM

SMILES: OCn1nc2c(C3OCCO3)cc3ccccc3n2c1=S
- TGI: > 100 µM

SMILES: O=C1CSC(c2ccc([N+](=O)[O-])cc2)N1c1nc(-c2ccc3c(c2)CCCC3)cs1 (stereo unspecified)
- TGI: > 100 µM

SMILES: CCCCCC(/C=C/[C@@H]1[C@H]2CC(=O)O[C@H]2C[C@H]1N1CCOCC1)OC1CCCO1 (stereo partly specified)
- TGI: > 100 µM

SMILES: COc1ccc(NC(=S)Nc2ccccc2)cc1
- TGI: > 100 µM

SMILES: Nc1nc(N)c2nc(CNc3ccc(C(=O)NC(CCC(=O)O)C(=O)O)cc3F)cnc2n1 (stereo unspecified)
- TGI: > 100 µM

SMILES: O=C1CCc2c(Oc3ccc4c(c3)[C@H]3[C@@H](O4)[C@@H]3c3nc4ccc(C(F)(F)F)cc4[nH]3)ccnc2N1
- GI50: 1.86 µM
- TGI: > 100 µM

SMILES: CC(C)OP(=O)(OC(C)C)c1ncc(-c2ccc(C(F)(F)F)cc2)c(NC2CCCCCC2)n1
- GI50: > 10 µM
- TGI: > 10 µM

SMILES: O=C1c2ccccc2C(=O)N1CCCC(=O)n1cc(F)c(=O)[nH]c1=O
- TGI: > 100 µM

SMILES: CCN(CC)CC1CCCCN1CC(=O)N1c2ccccc2NC(=O)c2ccccc21 (stereo unspecified)
- TGI: > 100 µM

SMILES: O=C(O)C(F)(F)C(F)(F)C(F)(F)C(F)(F)C(F)(F)C(F)(F)C(F)(F)C(F)(F)F
- TGI: > 100 µM

SMILES: Clc1ccccc1CN1COc2c(cc(Cl)c3cccnc23)C1
- TGI: 16.1 µM

SMILES: C[C@@H](CO)C1=C(O)c2ccc3c(c2C(=O)C1=O)CCCC3(C)C
- TGI: > 100 µM

SMILES: O=C(Cc1ccccc1CCO)NCCc1ccccc1
- TGI: > 100 µM

SMILES: O=C1CSC(c2cccc(Cl)c2)N1c1ccc(-n2c(-c3ccccc3)nc3ccccc3c2=O)cc1 (stereo unspecified)
- TGI: > 100 µM

SMILES: COC(=O)C1=C(O)C(C(=O)OC)[C@]2(O)[C@@H](C(=O)OC)[C@H]1[C@H](C)[C@@H](c1ccccc1)[C@@H]2C(=O)OC (stereo partly specified)
- TGI: > 100 µM

SMILES: NC(=S)C1=C(N)Oc2c(c(=O)oc3ccccc23)C1c1ccc(Br)cc1 (stereo unspecified)
- TGI: > 100 µM

SMILES: N#Cc1cnc(=O)n(C2CC(O)C(CO)O2)c1 (stereo unspecified)
- GI50: > 100 µM
- TGI: > 100 µM

SMILES: CCn1nc(-c2ccc(C(=O)OC)cc2)nc2c(=O)n(C)c(=O)nc1-2
- GI50: 0.32 µM
- TGI: 1.39 µM

SMILES: CC(=O)/C(=C/n1ccc(=O)[nH]c1=S)C(=O)Nc1ccccc1C
- TGI: > 100 µM

SMILES: Cc1ccc(Nc2nc3ccccc3c(=O)n2N)cc1
- TGI: > 100 µM

SMILES: C=Cc1c(C)c(O)cc2c1-c1ccc(O)c(C)c1CC2
- TGI: 30 µM

SMILES: COC1(OC)CC2CCCCC2=C(C)N1S(=O)(=O)c1ccccc1 (stereo unspecified)
- TGI: > 100 µM

SMILES: C[N+]1([O-])CCC(O)(C2CC2)CC1 (stereo unspecified)
- TGI: > 100 µM

SMILES: N#CCCC1(CCC#N)CCCCCCC(CCC#N)(CCC#N)C(=O)C1=O
- TGI: > 100 µM

SMILES: CC(C)CC(NC(=O)C(Cc1ccccc1)NC(=O)[C@H]1CC[C@H](NC(=O)C(Cc2ccc(OC(C)(C)C)cc2)NC(=O)OC(C)(C)C)C1)C(N)=O (stereo partly specified)
- TGI: > 100 µM

SMILES: CC(C)(C)C(=O)OCCNc1nc(-c2ccccc2)nc2ccccc12
- TGI: 15.4 µM

SMILES: Nc1nc(/C=C\c2ccc([N+](=O)[O-])s2)nc(N2CCOCC2)n1
- GI50: 14.9 µM
- TGI: 37.8 µM

SMILES: c1ccc2nc(-c3ccc4c(c3)OCO4)ccc2c1
- TGI: > 100 µM

SMILES: C[C@]12CC[C@H]3[C@@H](CCC4=C[C@@H](N5CCCC5)CC[C@@]43C)[C@@H]1C/C(=C\c1ccncc1)[C@@H]2O
- TGI: 27.5 µM

SMILES: COc1cc(COC(=O)N2CSCC2C(=O)O)c([N+](=O)[O-])cc1OC (stereo unspecified)
- TGI: > 100 µM

SMILES: COC(=O)/C=C/CC(=O)NS(C)(=O)=O
- TGI: > 10 µM

SMILES: O=C(CSc1ncnc2nc[nH]c12)c1ccccc1
- TGI: > 100 µM

SMILES: [N-]=[N+]=NCC1OC(n2cnc3c(N)ncnc32)C2OC12 (stereo unspecified)
- TGI: > 100 µM

SMILES: COc1ccc(OC)c(/C=C/C(=O)N/N=C/c2ccccc2)c1
- GI50: 5.23 µM
- TGI: > 100 µM

SMILES: COc1cc2nc3c(=C(C#N)C#N)c4ccccc4n3c(=O)c2cc1OC
- TGI: > 100 µM

SMILES: COc1cc(OC)c2nc3occc3c(OC)c2c1
- TGI: > 100 µM

SMILES: Cc1c(-c2c(C)c(=O)c3c(C(C)C)c(=O)c(=O)c(C=O)c-3c2=O)c(O)c2c(C=O)c(O)c(O)c(C(C)C)c2c1O
- TGI: 7.27 µM
